Measurements: PubChem BioAssay AID1963576 (National Center for Advancing Translational Sciences (NCATS), 2024)
Among all 46,000 compounds or so, about 60 (0.1%) were called active. Not shown: some 3% with an inconclusive outcome. Calls follow the shape of the dose curve; as a rule, active = well fitted inhibition curve with a large enough effect; inconclusive = small, poorly fitted or top-dose-only effect; inactive = no such curve, though single readings can be large or run the other way. Some of the results follow.

Test: Primary qHTS assay for Inhibitors of ovarian cancer metastasis using an organotypic tumor microenvironment (TME) model. Also: nearly all actives have a fitted effect of over 65% in size.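 As to activity change, negative = inhibition: plate controls were DMSO wells for no effect and tomatine positive control wells for full effect.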
Details: SKOV3ip1-GFP adhesion/invasion on 3D omental model, fluorescence; series mostly up to 45.8 µM; activity change, negative = inhibition: at the top concentration
In short: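 Primary human omental fibroblast/mesothelial 3D culture pre-formed 48 h. SKOV3ip1-GFP cells added with compounds (0.36-46 umol/L), incubated 2 h RT/16 h 37 C, fixed; GFP cells quantified at 488/509 nm.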

outcome, inactive:
COC(=O)c1ccc(Cl)cc1NC(=O)N1CC(C)Oc2ccccc21 (centres undefined)
CCN(CC)c1ccc(NC(=O)C(Cc2ccccc2)NS(=O)(=O)c2ccc(Br)s2)c(C)c1 (centres undefined)
Cc1nc(N2CCCC2)c2c(C(=O)Nc3cccc(C)c3C)c(C)oc2n1
COc1ccccc1N1CCN(C(=O)Cn2ncc3c(=O)oc4ccccc4c32)CC1
COc1cc(OC)c(NC(=O)COCc2cc(-c3cccs3)on2)cc1Cl
COc1ccccc1CCNC(=O)CCc1c(C)c2cc3c(C)coc3c(C)c2oc1=O
Cc1cccc(C(=O)N2CCc3cc(CNC(=O)CCc4ccccc4)ccc32)c1
COc1ccc(N2CCN(c3cc(C)nc4nc(-c5ccc(C)cc5)nn34)CC2)cc1
CCOCCOC(=O)c1ccc(NC(=O)/C=C/c2ccc(OC)c(OC)c2)cc1
COc1cc(NC(=O)CC2C(=O)N(c3cccc(C)c3)C(=O)N2Cc2cccs2)cc(OC)c1 (centres undefined)
Cc1ccc(C)c(N2CCN(c3nc4ccccc4c(=O)n3-c3ccccc3)CC2)c1
Cc1cc(C)c(S(=O)(=O)NCCc2csc3nc(-c4ccc(Cl)cc4)nn23)c(C)c1
CCOc1ccc2c(c1)c(=O)c(S(=O)(=O)c1ccc(Cl)cc1)cn2Cc1ccccc1C
CC(=O)Nc1ccc(S(=O)(=O)NCCS(=O)(=O)N2CCN(c3ccccc3F)CC2)cc1

Activity change, negative = inhibition, inactive:
CC(=O)Nc1cccc(NC(=O)Cn2cnc3c2c(=O)n(C)c(=O)n3C)c1 3.13%
O=C(Nc1ccc(C(=O)OCc2cc(=O)n3nc(C4CC4)sc3n2)cc1)c1ccc(F)cc1 6.02%
Cc1cccc(N2CCN(S(=O)(=O)c3ccc4c(c3)CCCN4C(=O)C3CCC3)CC2)c1C -4.52%
COc1ccc(S(=O)(=O)N(CC(=O)NCc2ccccc2OC)c2ccc(C)cc2)cc1 16.1%
CCOc1ccccc1N(C)C(=O)Cn1cnc2sc(C)c(S(=O)(=O)N3CCC(C)CC3)c2c1=O 12.7%
COc1ccc(CCNCc2c(C(=O)O)c(C)n(Cc3ccccc3C)c2C)c(OC)c1 7.34%
Cc1nn(CCCC(=O)Nc2ccccc2C(F)(F)F)c(=O)c2c1sc1ccccc12 11.6%
O=C(Cn1c(=O)n(Cc2ccco2)c(=O)c2oc3ccccc3c21)Nc1ccc(F)cc1F 1.51%
CN(C)CCN(Cc1ccco1)S(=O)(=O)c1cc2c(cc1Cl)NC(=O)CO2 -6.45%
O=C(NCCO)C(=O)Nc1c2c(nn1-c1ccc(F)cc1)CSC2 -1.46%
Cn1c(=O)n(C)c2cc(NS(=O)(=O)c3ccccc3)c(NCc3ccccc3)cc21 1.15%
CCC(Sc1nnc(C)n2c1cc1occc12)C(=O)Nc1ccccc1F (centres undefined) -8.31%
COc1cccc(NC(=O)Nc2cc(-c3cn4cccnc4n3)ccc2C)c1 0.437%
COCc1cc(C)n(CC(=O)Nc2ccc(NC(C)=O)cc2)c(=O)c1C#N -11.5%
CCN(CC)C(=O)Cn1cc(SCC(=O)Nc2cccc(C)c2)c2ccccc21 -8.23%
CC(C)OCCCN(Cc1ccco1)C(=O)c1cc2c(s1)-c1ccccc1OC2 1.31%
COc1ccccc1CNC(=O)CN1C(=O)CSc2ccc(S(=O)(=O)N3CCCC3)cc21 -20.2%
COC(=O)c1cc2oc3ccccc3c2n1CC(=O)Nc1ccc(OC)c(OC)c1OC -9.07%
Cc1ccc(-c2noc(CNC(=O)c3ccc(C(C)(C)C)cc3)n2)cc1 -10.6%
CC(C)Oc1ccc(CNC(=O)C2CCN(C(=O)c3sccc3-n3cccc3)CC2)cc1 -6.59%
Cc1ccc(Cl)cc1NC(=O)N1CCN(C)c2ncccc21 8.62%
CC1=C(C#N)C(NC(=O)c2cccc(Cl)c2)(C(F)(F)F)C(=O)N1 (centres undefined) -2.33%
COc1ccccc1-c1noc(-c2ccc(N3CCN(c4ccccc4)CC3)c([N+](=O)[O-])c2)n1 9.84%
COc1ccc(Nc2c(-c3cc(Br)ccc3O)nc3ncccn23)cc1OC -15.4%
Cc1cccc(C)c1-n1ncc(C(=O)Nc2ccc3c(c2)OCCO3)c1C1CCN(C(=O)OC(C)(C)C)CC1 6.58%
Cc1ccc(S(=O)(=O)c2cn(C)c3cc(N4CCN(C)CC4)c(F)cc3c2=O)cc1 15.6%
CCc1cc2c(cc3c(=O)n(CC(=O)N4CCN(c5cc(Cl)ccc5C)CC4)ncn32)s1 34.3%
O=C(CSc1ncc2c(n1)-c1ccccc1N(Cc1ccc(F)cc1)S2(=O)=O)c1ccc(Cl)cc1 11.8%
COc1ccccc1N1CCN(S(=O)(=O)c2c(C)sc3ncn(CC(=O)N(C)c4ccc(C(C)C)cc4)c(=O)c23)CC1 9.09%
CNS(=O)(=O)c1ccc(OC)c(-c2nnc3c4ccccc4c(C)nn23)c1 -2.82%
Cc1ccc(NCc2cccn2-c2nnc(N3CCC(C(=O)NCc4ccc(OC(C)C)cc4)CC3)s2)cc1 -10%
CCS(=O)(=O)N1CCc2cc(C(=O)NCCc3ccc(OC)c(OC)c3)ccc21 -3.91%
COc1cccc(C(=O)Nc2ccc(S(=O)(=O)N(Cc3ccccc3)c3ccccc3)cc2)c1 -8.37%
Cc1ccc(C2CCN(C(=O)Nc3ccc(C)c(C)c3)C2)cc1 (centres undefined) 1.67%
CC(C)Oc1ccc(CNC(=O)Cn2c(-c3cccs3)cc3ccccc32)cc1 6.71%
Cc1ccc(C(=O)Nc2ccc3[nH]c(=O)c(=O)[nH]c3c2)cc1 13.3%
Cc1ccc(NC(=O)c2sc3ncnc(N(C)C4CCCCC4)c3c2C)cc1 8.81%
O=c1c2c3c(sc2n(Cc2ccc(F)cc2Cl)c(=O)n1-c1ccc(Cl)cc1)CCC3 -2.41%
CC(=O)c1ccc(N2CCN(C(=O)C3CCN(S(=O)(=O)c4c(C)noc4/C=C/c4ccccc4F)CC3)CC2)cc1 -6.76%
COc1ccc(NC(=O)c2ccc(NC(=O)CCS(=O)(=O)c3cccs3)cc2)cc1 -19.9%
COc1cccc(Nc2nc3ccc(C(=O)c4ccccc4)cc3n3c(C)nnc23)c1 -13.4%
CCOc1ccc2cc(-c3nnc(Nc4ccc(C)cc4)s3)c(=O)oc2c1 8.22%
Cc1ccccc1OCc1ccc(-c2nc(C#N)c(N3CCC(C(N)=O)CC3)o2)o1 14.3%
Cc1ccccc1-c1nc(SCC(=O)N(C)c2ccccc2)c2c(=O)n(C)c(=O)n(C)c2n1 3.31%
COc1ccc(CCC(=O)NCCc2csc(-c3cccc(C)c3)n2)cc1 22.4%
